Measured values reported in PubChem BioAssay AID1030 (National Center for Advancing Translational Sciences (NCATS), 2008).
Out of some 220,000 compounds screened, about 16,000 (7.3%) were called active. Inconclusive results, whose numbers are uncertain, are shown with a selection of clear calls. The call rests on the fitted dose curve; in most records, active means well fitted inhibition curve with a large enough effect (not every such curve was filed as active); inconclusive means small, poorly fitted or top-dose-only effect, or another doubt; inactive means no such curve, though single readings can be large or run the other way. No potency is given beside an inconclusive call; the fits are too rough. More than one record can exist for a structure, and the calls need not agree.

The compounds below were run against Aldehyde dehydrogenase 1A1 (Homo sapiens) (UniProt P00352) (assay: qHTS Assay for Inhibitors of Aldehyde Dehydrogenase 1 (ALDH1A1)). Conditions: Purified ALDH1A1, NADH fluorescence, propionaldehyde substrate; series mostly up to 75.3 µM.
Chain of UniProt P00352 (P00352 whole entry, looked up): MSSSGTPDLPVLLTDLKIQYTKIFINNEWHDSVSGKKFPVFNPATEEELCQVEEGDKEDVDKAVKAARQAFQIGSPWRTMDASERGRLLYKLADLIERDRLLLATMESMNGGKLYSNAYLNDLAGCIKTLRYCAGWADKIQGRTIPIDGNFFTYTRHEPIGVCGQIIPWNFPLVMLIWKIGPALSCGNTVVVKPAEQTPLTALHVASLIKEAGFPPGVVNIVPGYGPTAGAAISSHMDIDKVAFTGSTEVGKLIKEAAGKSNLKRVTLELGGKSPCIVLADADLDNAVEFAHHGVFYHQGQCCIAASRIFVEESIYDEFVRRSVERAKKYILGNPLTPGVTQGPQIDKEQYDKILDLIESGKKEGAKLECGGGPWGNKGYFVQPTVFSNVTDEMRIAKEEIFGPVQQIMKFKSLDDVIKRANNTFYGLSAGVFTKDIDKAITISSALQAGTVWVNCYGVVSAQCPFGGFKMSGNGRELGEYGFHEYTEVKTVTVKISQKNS
Potency means the concentration at half of the fitted maximal effect; tags describe the fitted curve by direction and shape.
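Wherever activity, negative = inhibition is given: plate controls were no enzyme wells and a reference inhibitor.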

Structure (SMILES) | Potency | activity, negative = inhibition
COc1cccc(NC(=O)N2CCCC2C(=O)NC2CC2)c1 (stereo not given) | inactive | –
O=C(CSc1nnc(-c2cccs2)n1-c1cccc(Cl)c1)c1cccc2c1OCCO2 | inconclusive [inhibitor, single point] | –
C=CCn1c(-c2ccco2)n[nH]c1=S | inconclusive [inhibitor, single point] | –
C=CCOc1ccc(C(=O)CC)cc1OC | inactive | –
C[C@H]1CC(C)(C)C[C@@](OCCN2CCCCC2)(c2ccccc2)C1 | – | inactive: 6.86% [at 13.5 µM]
C=C1C(C2(C)C=CC(=O)C(C)(C)C2CC(=O)OC)CC[C@@]2(C)C(c3ccoc3)OC(=O)C3OC132 (stereo not given in full) | inactive | –
CCc1ccc(S(=O)(=O)NC(CC(=O)O)c2ccccc2)cc1 (stereo not given) | inconclusive [inhibitor, single point] | –
COc1ccccc1N1CCN(C(CNS(=O)(=O)c2cc(F)ccc2F)c2cccnc2)CC1 (stereo not given) | active: 20 µM | –
O=c1c(-c2ccc(F)cc2)nc2cnc(Oc3ccccc3)nc2n1Cc1cccs1 | inconclusive [inhibitor, partial curve] | –
COc1ccc(C2CC(c3ccccc3)=NN2C(=O)COC(=O)c2cc(S(=O)(=O)N3CCOCC3)ccc2F)cc1 (stereo not given) | inconclusive [inhibitor, partial curve] | –
COc1ccc(C2CCCN2C(=S)Nc2ccc(C)c(C)c2)cc1OC (stereo not given) | inconclusive [inhibitor, single point] | –
O=C1CC(c2cccc(F)c2)c2c(c3ccccc3[nH]c2=O)O1 (stereo not given) | inconclusive [inhibitor, partial curve] | –
O=c1cc(C(F)(F)C(F)F)oc2ccccc12 | inactive | –
N#CC1(C#N)CC(C=O)=C(N)C1(C#N)CC(=O)c1ccc(F)cc1 (stereo not given) | inconclusive [inhibitor, partial curve] | –
COCCNC(=O)C1c2ccccc2C(=O)N(CCOC)C1c1ccc(F)cc1 (stereo not given) | inconclusive [inhibitor, single point] | –
Cc1sc2nc(CSCC(=O)N(C)c3ccccc3)[nH]c(=O)c2c1C | inconclusive [inhibitor, partial curve] | –
O=C(c1cnccn1)N1CCC2(CC1)CCN(c1ccccn1)CC2 | inactive | –
CC(=O)Oc1ccc(C(=O)[C@H]2[C@H]3C(=O)N(c4cccc5ccccc45)C(=O)[C@H]3[C@@H]3C=CC=NN32)cc1 | inconclusive [inhibitor, single point] | –
C=C1c2cc(C)ccc2NC(=O)N1c1ccccc1 | inconclusive [inhibitor, single point] | –
CCOC(=O)C1=C(C)N(C)C(=O)NC1c1ccccc1OC (stereo not given) | inactive | –
Cc1ccc(-c2noc(C3CCCN(C(=O)c4ccc(F)cc4F)C3)n2)cc1 (stereo not given) | inconclusive [inhibitor, single point] | –
O=c1c2ccccc2nc2n1C(CSCc1ccc(Cl)cc1)CS2 (stereo not given) | inconclusive [inhibitor, single point] | –
O=C(CNc1cccc2ccccc12)N/N=C/C=C/c1ccco1 | inconclusive [inhibitor, single point] | –
O=C(NC1CCCCC1)C(c1cccnc1)N(C(=O)c1ccc(Cl)nc1)C1CCCCC1 (stereo not given) | inactive | –

Structure (SMILES) | Potency | activity, negative = inhibition
O=c1[nH]ncc(N/N=C\c2cccs2)c1Cl | inactive | –
O=C(NCc1ccccc1)C1CCCN(S(=O)(=O)c2cccnc2)C1 (stereo not given) | inconclusive [inhibitor, single point] | –
Cc1cc(O)c2c(c1)C(=O)c1cccc(O)c1C2=O | active: 12.6 µM | –
O=C(CN1CCN(c2nc(-c3ccc(Cl)cc3)cs2)CC1)NCc1ccco1 | inconclusive [inhibitor, single point] | –
COC(=O)c1ccc(N2C(=O)C3CC=CC(C)C3C2=O)cc1 (stereo not given) | inactive | –
Cc1ccc(Cn2ccsc2=NC(=O)CCl)cc1 | active: 10 µM | –
O=C(N/N=C/c1cccnc1)C1CCCCC1 | inconclusive [inhibitor, single point] | –
CCCCn1c(NS(=O)(=O)c2ccccc2)c(S(=O)(=O)c2ccc(C)cc2)c2nc3ccccc3nc21 | inconclusive [inhibitor, partial curve] | –
COc1ccc(-c2ccc(-c3noc(-c4ccc(OC)c(OC)c4)n3)c(OC)n2)cc1 | inconclusive [inhibitor, partial curve] | –
c1ccc(-c2nnc(SCC3CCCO3)nc2-c2ccccc2)cc1 (stereo not given) | active: 12.6 µM | –
CC1(C)Cc2c(sc3ncn4nnnc4c23)CO1 | inconclusive [inhibitor, single point] | –
COc1ccc(C/C(C)=N/NC(=O)c2cc(C)oc2C)cc1 | inconclusive [inhibitor, single point] | –
COc1ccc(N2CCN(C(c3cccc(OC)c3OC)c3nnnn3C3CCCC3)CC2)cc1 (stereo not given) | inconclusive [inhibitor, single point] | –
CCOC(=O)C1=C(CSc2nc(-c3ccncc3)ccc2C#N)OC(N)=C(C#N)C1c1cccnc1 (stereo not given) | inconclusive [inhibitor, partial curve] | –
CCOc1ccc(CCNC(=O)C2CCCN(c3nnc(-n4cccc4)s3)C2)cc1OCC (stereo not given) | inconclusive [inhibitor, single point] | –
O=C(OCC(=O)N1CCN(C(=O)c2ccco2)CC1)c1ccccc1Cc1ccccc1 | inactive | –
O=C(Cn1nc(C(=O)O)c2ccccc2c1=O)NC12CC3CC(CC(C3)C1)C2 | inactive | –
COCCn1c(SCC(=O)N2CCCc3ccccc32)nc2c(c1=O)SC(C)C2 (stereo not given) | active: 20 µM | –
O=C(N/N=C/C=C\c1ccc([N+](=O)[O-])cc1)c1cccnc1 | inactive | –
COc1cccc2cc(C(=O)N3CCN(c4ccccn4)CC3)c(=O)oc12 | inconclusive [inhibitor, single point] | –
O=C(c1ccc(-c2ccccc2)cc1)C1CCCN(C(=O)c2cncs2)C1 (stereo not given) | inconclusive [inhibitor, partial curve] | –
CCOC(=O)c1c(C)c(C(=O)NCCCOC(C)C)c(C)n1C | inactive | –
COc1ccc(CN(CCO)CCO)cc1[N+](=O)[O-] | inactive | –
CCN(CC)c1ccc(/C=N/Nc2nc3ccccc3[nH]2)c(O)c1 | inactive | –

Structure (SMILES) | Potency | activity, negative = inhibition
CN(Cc1nc(-c2ccccn2)no1)S(=O)(=O)c1ccc(Br)cc1 | inconclusive [inhibitor, partial curve] | –
Cc1nn(-c2ccccc2)c2nc(C(F)(F)F)[nH]c(=O)c12 | inconclusive [inhibitor, single point] | –
COC(=O)c1cc(OC)c(OC)cc1NC(=O)c1cc(-c2ccccc2)nc2ccccc12 | inconclusive [inhibitor, single point] | –
CC(/C=N/NC(=O)c1ccc(CN2c3cccc4cccc(c34)S2(=O)=O)cc1)c1ccccc1 (stereo not given) | inconclusive [inhibitor, partial curve] | –
Cc1cccc(NC(=O)CCn2ccnc2C)c1 | inconclusive [inhibitor, single point] | –
CCOC(=O)N1CCN(S(=O)(=O)c2ccc(C(=O)Nc3nc4ccc(F)cc4s3)cc2)CC1 | inconclusive [inhibitor, single point] | –
O=C(Nc1ccccc1)N1CCc2scc[n+]2-c2ccccc21 | inconclusive [inhibitor, single point] | –
CCOc1ccc(/C=N/NC(=O)c2ccccc2NC(=O)c2ccc(OC)cc2)cc1 | inconclusive [inhibitor, single point] | –
CCN(Cc1ccccc1)S(=O)(=O)c1ccc(C(=O)Nc2nnc(C3CC3)o2)cc1 | inconclusive [inhibitor, single point] | –
Cc1ccc2nc(-c3ccc(NC(=O)CN(c4ccccc4C)S(C)(=O)=O)cc3)sc2c1 | inconclusive [inhibitor, partial curve] | –
COc1ccc(C2=CC(c3ccc(OC)c(OC)c3)n3nnnc3N2)c(OC)c1 (stereo not given) | inconclusive [inhibitor, single point] | –
CCOCC(=O)Nc1cc(C(=O)OC)cc(C(=O)OC)c1 | inactive | –
Cc1nc(NC(=O)C2CC3CCCC(C2)C3=O)sc1C (stereo not given) | inconclusive [inhibitor, single point] | –
Cn1c(=O)c2c(ncn2CC(=O)OCC(=O)Nc2ccc(Cl)cc2Cl)n(C)c1=O | inactive | –
CC(C)N(C(=O)CSc1ncnc2sc(-c3ccccc3)cc12)C(C)C | inconclusive [inhibitor, single point] | –
CN(C)CCN(C(=O)c1ccc(N2C(=O)CCC2=O)cc1)c1nc2cc3c(cc2s1)OCO3 | active: 20 µM | –
O=C1CC(c2ccccc2)CC(=O)C1Sc1ccc(Cl)cc1 (stereo not given) | inconclusive [inhibitor, single point] | –
CCOC(=O)C1=C(NC(=S)NC(=O)c2ccccc2)c2ccccc2CC1C(C)C (stereo not given) | active: 15 µM | –
COc1ccccc1NC(=O)c1cc(S(=O)(=O)N2CCC3(CC2)OCCO3)ccc1F | inconclusive [inhibitor, partial curve] | –
Cc1cccn2c(=O)c(/C=C3\SC(=S)N(CC(C)C)C3=O)c(NCCCOC(C)C)nc12 | inconclusive [inhibitor, partial curve] | –
O=C(COC(=O)CCSc1ccccc1)NCc1ccc(F)cc1 | inactive | –
CCOc1ccc(-c2nc(C#N)c(N3CCN(Cc4ccccc4)CC3)o2)cc1 | inconclusive [inhibitor, partial curve] | –
